From PubChem BioAssay AID1030 (National Center for Advancing Translational Sciences (NCATS), 2008)
About 16,000 (7.3%) of roughly 220,000 compounds were called active. Inconclusive means that the source gave no clear call. Such entries were picked first, then a sample of the others. The call rests on the fitted dose curve; in most records, active means well fitted inhibition curve with a large enough effect (not every such curve was filed as active); inconclusive means small, poorly fitted or top-dose-only effect, or another doubt; inactive means no such curve, though single readings can be large or run the other way. No potency is given beside an inconclusive call; the fits are too rough.
Potency means the concentration at half of the fitted maximal effect; tags describe the fitted curve by direction and shape.
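Wherever activity, negative = inhibition is given: plate controls were no enzyme wells and a reference inhibitor.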

The molecules below were run against Aldehyde dehydrogenase 1A1 (Homo sapiens) (UniProt P00352) (assay: qHTS Assay for Inhibitors of Aldehyde Dehydrogenase 1 (ALDH1A1)). Settings: Purified ALDH1A1, NADH fluorescence, propionaldehyde substrate; series mostly up to 75.3 µM.
UniProt P00352, sequence (P00352 whole entry, looked up): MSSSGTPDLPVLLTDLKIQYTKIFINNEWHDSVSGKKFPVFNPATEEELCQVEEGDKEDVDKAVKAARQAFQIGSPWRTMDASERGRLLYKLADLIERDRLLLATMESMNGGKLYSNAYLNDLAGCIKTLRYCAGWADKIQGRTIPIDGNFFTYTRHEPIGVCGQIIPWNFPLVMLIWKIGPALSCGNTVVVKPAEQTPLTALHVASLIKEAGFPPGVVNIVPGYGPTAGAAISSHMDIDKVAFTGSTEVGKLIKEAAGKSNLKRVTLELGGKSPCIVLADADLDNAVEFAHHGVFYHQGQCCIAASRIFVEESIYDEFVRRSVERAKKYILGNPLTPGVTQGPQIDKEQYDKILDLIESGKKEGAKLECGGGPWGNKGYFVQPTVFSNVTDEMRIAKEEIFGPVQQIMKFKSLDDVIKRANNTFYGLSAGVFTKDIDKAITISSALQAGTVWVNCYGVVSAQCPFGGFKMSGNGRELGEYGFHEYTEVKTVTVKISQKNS
For `CC(C)(C)c1nc2scc(-c3cccs3)c2c(=O)o1`, the Potency was inconclusive [inhibitor, single point]. `O=c1c2ccccc2nc(COc2ccccc2)n1/N=C/c1cc([N+](=O)[O-])ccc1O` was tested, and the Potency was inconclusive [inhibitor, single point]. With `CC1CCCCN1c1nc2nonc2nc1N1CCCCC1C` (configuration not stated) the Potency was active: 2.24 µM. `O=C(O)C1CCN(C(=O)c2cc(F)cc3c2OCOC3)CC1` was tested, and the Potency was “inactive”. For `CN(Cc1ccccc1)C(=O)CCSc1nc(-c2ccc3c(c2)OCO3)cc(C(F)(F)F)n1`, the Potency was inconclusive [inhibitor, partial curve]. In the case of `CCC(=O)Nc1ccc(C(=O)Nc2ccc3c(c2)C(=O)N(CC2CCCO2)C3=O)cc1` (configuration not stated), the Potency is reported as inconclusive [inhibitor, partial curve]. `Cc1cc(C=O)c(C)n1-c1ccc(N2CCCC2)c([N+](=O)[O-])c1` was tested, and the Potency was active: 0.447 µM. `Cc1ccc(C(=O)NCC(=O)OCC(=O)c2ccc3c(c2)OCCO3)cc1C` was tested, and the Potency was inconclusive [inhibitor, single point]. With `COc1cc(/C=C(\C#N)C(=O)c2c(C)[nH]c3ccccc23)cc(OC)c1OC` the Potency was active: 8.91 µM. For `COc1ccc(C(=O)NCCc2cn3ccc(C)cc3n2)cc1`, the Potency was inconclusive [inhibitor, single point]. `O=C1c2ccccc2C(=O)N1Cc1nc2ccccc2o1` was tested, and the Potency was “inactive”. For `Cc1ccc(C(=O)Nc2ccon2)cc1S(=O)(=O)N1CCCC1`, the Potency was inconclusive [inhibitor, partial curve]. For `O=C(c1cccs1)N1CCN(Cc2cccnc2)CC1`, the Potency was inconclusive [inhibitor, partial curve]. In the case of `CC1CCN(C(=O)c2ccc(NS(C)(=O)=O)cc2)CC1`, the Potency is reported as inconclusive [inhibitor, single point]. With `O=C(C1CCCO1)N(Cc1ccccc1)c1ccccc1` (configuration not stated) the Potency was inconclusive [inhibitor, single point]. In the case of `C=CCNC(=O)C(C#N)c1nc2ccccc2nc1N1CCN(Cc2ccccc2)CC1` (configuration not stated), the Potency is reported as inconclusive [inhibitor, partial curve]. With `CCCOc1ccc(C(=O)Nc2ccc(N(C)C)cc2)cc1` the Potency was inconclusive [inhibitor, single point]. `Cc1ccccc1C(=O)NC(=S)Nc1ccc(S(=O)(=O)N2CCOCC2)cc1` was tested, and the Potency was inconclusive [inhibitor, single point]. `O=C1C2C3C=CC(C4CC34)C2C(=O)N1Cc1ccco1` (configuration not stated) was tested, and the Potency was active: 22.4 µM. In the case of `Cc1ccc(-c2csc(C3=C(O)CN(NC(=O)c4ccc([N+](=O)[O-])cc4)C3=N)n2)cc1`, the Potency is reported as inconclusive [inhibitor, single point]. With `CCc1c(C)nc(SCC(=O)Nc2ccc(Br)cc2)[nH]c1=O` the Potency was “inactive”. For `CCOCC(=O)N1CCC(Cc2ccccc2)CC1`, the Potency was inconclusive [inhibitor, single point]. `COCCN1C(=O)N[C@@H](c2cccc(C(F)(F)F)c2)C(C(C)=O)=C1C` was tested, and the Potency was “inactive”. For `Cc1nnc(S(=O)(=O)c2ccc(N=Nc3c(N)nc(N)nc3N)cc2)s1`, the activity, negative = inhibition was inactive: -1.19% [at 13.5 µM]. With `c1ccc(-c2cc3c(N4CCN(c5ncccn5)CC4)ncnc3s2)cc1` the Potency was inconclusive [inhibitor, single point]. For `O=C(c1ccccc1)c1ccc(OCC(=O)N2CCOCC2)cc1`, the Potency was inconclusive [inhibitor, full curve]. With `Cc1ccc(S(=O)(=O)N/N=C(\c2ccccc2)c2cccnc2)cc1` the Potency was “inactive”. `COC(=O)C1CCN(C(=O)CCC2CCCCC2)CC1` was tested, and the Potency was inconclusive [inhibitor, single point]. With `Fc1ccc(NC(=S)NN=C2CCCCCC2)cc1` the Potency was inconclusive [inhibitor, single point]. With `CC(C)Oc1ccc(C2c3c(oc4ccccc4c3=O)C(=O)N2CCCN2CCOCC2)cc1` (configuration not stated) the Potency was active: 8.91 µM. In the case of `O=C1CC(c2ccc(Cl)cc2)n2nc(N3C(=O)c4ccccc4C3=O)nc2N1` (configuration not stated), the Potency is reported as inconclusive [inhibitor, single point]. `CO[C@@H]1COC(=O)[C@H](C)NC(=O)C/C=C\[C@@H](C)[C@H](OC)COC(=O)[C@H](C)NC(=O)C/C=C\[C@H]1C` was tested, and the activity, negative = inhibition was inactive: -0.252% [at 13.5 µM]. In the case of `CS(=O)(=O)N(CC(=O)N1CCN(c2ccccc2)CC1)c1cc(C(F)(F)F)ccc1Cl`, the Potency is reported as inconclusive [inhibitor, single point]. In the case of `CS(=O)(=O)N(CC(=O)NCc1ccccc1)Cc1ccc(Cl)cc1`, the Potency is reported as “inactive”. For `CC(C)(C)c1ccc(-c2nc(C=O)c3ccccn23)cc1`, the Potency was inconclusive [inhibitor, partial curve]. In the case of `Cc1c(N=Cc2ccc[nH]2)c(=O)n(-c2ccccc2)n1C`, the Potency is reported as active: 12.6 µM. For `COc1ccccc1N1C(=O)CC(Nc2ccc(N3CCOCC3)cc2)C1=O` (configuration not stated), the Potency was inconclusive [inhibitor, single point]. `CCC(C)n1ncn(-c2ccc(N3CCN(c4ccc(O)cc4)CC3)cc2)c1=O` (configuration not stated) was tested, and the Potency was inconclusive [inhibitor, single point]. `Brc1cc2c(cc1COc1ccc(-c3nn[nH]n3)cc1)OCO2` was tested, and the Potency was inconclusive [inhibitor, single point]. In the case of `Cc1nnc(N/N=C/c2c(Cl)cccc2Cl)n1N`, the Potency is reported as “inactive”. In the case of `Cc1[nH]nc(N=CC2=C(O)CC(c3ccco3)CC2=O)c1-c1ccccc1` (configuration not stated), the Potency is reported as inconclusive [inhibitor, partial curve]. For `O=C(O)c1ccc(N2C(=O)CC(N3CCC(c4nc5ccccc5[nH]4)CC3)C2=O)cc1` (configuration not stated), the Potency was active: 31.6 µM. For `CC(O)/C=C/C1OC(=O)CC1Nc1ccc(C=O)cc1` (configuration not stated), the Potency was active: 0.447 µM. For `CC1(C)CC(=O)C(N=Nc2c(Cl)cc(Cl)cc2Cl)=C(O)C1`, the Potency was active: 2 µM. For `O=C(CCNC(=O)c1ccccc1Cl)Nc1nnc(C2CC2)s1`, the Potency was “inactive”. For `C=CCn1c(=O)/c(=C2/Sc3ccccc3N2CC)s/c1=C1/C(=O)NN=C1C`, the Potency was active: 20 µM. `CC(C)n1cnc2cc(NCc3ccco3)ccc21` was tested, and the Potency was inconclusive [inhibitor, partial curve]. `COc1ccc(C(=O)N/N=C\c2coc3ccccc3c2=O)cc1` was tested, and the Potency was active: 3.55 µM. With `CC(C)NC(=O)c1onc(CSc2ccc(F)cc2)c1C(=O)O` the Potency was inconclusive [inhibitor, single point]. In the case of `COc1ccccc1-c1nc(C#N)c(N2CC(C)CC(C)C2)o1` (configuration not stated), the Potency is reported as inconclusive [inhibitor, partial curve]. For `O=C(NC1CCCc2ccccc21)c1ccccc1Cl` (configuration not stated), the Potency was inconclusive [inhibitor, single point]. `Cc1ccccc1C(=O)Nc1ccc(Br)cn1` was tested, and the Potency was “inactive”. `Cc1ccc(S(=O)(=O)N/N=C/c2cn(C)nc2C)cc1` was tested, and the Potency was inconclusive [inhibitor, single point]. `CCCCN1CCc2c1nc1ccc(Br)cc1c2N` was tested, and the Potency was inconclusive [inhibitor, single point]. In the case of `CC1=C(/C=C/C(C)=C/C=C/C(C)=C/C=C/C=C(C)/C=C/C=C(C)/C=C/C2=C(C)C(=O)CCC2(C)C)C(C)(C)CCC1=O`, the Potency is reported as “inactive”. With `C=C1CC[C@H](O)C/C1=C/C=C1\CCC[C@]2(C)C([C@H](C)CCCC(C)(C)O)CC[C@@H]12` (some centres not stated) the Potency was “inactive”. For `COc1ccc(-c2cc(N3CCCC3)n3ncnc3n2)cc1`, the Potency was inconclusive [inhibitor, single point]. `NS(=O)(=O)c1ccc(NC(=S)Nc2cc(Cl)c(Cl)cc2Cl)cc1` was tested, and the Potency was inconclusive [inhibitor, single point]. `O=C(Cc1cccs1)NCc1ccccc1` was tested, and the Potency was “inactive”. With `COc1ccc(C(=O)OCCN2CCOCC2)cc1OC` the Potency was “inactive”. In the case of `COCCN(C(=S)Nc1cccc(OC)c1)C(C)c1cccs1` (configuration not stated), the Potency is reported as inconclusive [inhibitor, single point]. For `COc1cc(NC(=O)CSCc2cnn(-c3ccccc3)c2-n2cccc2)cc(OC)c1`, the Potency was inconclusive [inhibitor, single point]. For `CC(C)(C)n1nnnc1CN(Cc1ccco1)Cc1cc2cc3c(cc2[nH]c1=O)OCO3`, the Potency was inconclusive [inhibitor, partial curve]. `CCN1CN(Cc2ccco2)CNC1=S` was tested, and the Potency was “inactive”. With `CSc1nc(C)c(C(=O)Nc2ccccc2)c(C)c1C#N` the Potency was inconclusive [inhibitor, single point]. For `Cc1ccc(S(=O)(=O)N(CCCO)CC(O)CON=C2c3ccccc3-c3ccccc32)cc1` (configuration not stated), the Potency was active: 8.91 µM. With `COc1cccc(C(=O)N2CCN(C(=O)c3cccc(F)c3)CC2)c1` the Potency was inconclusive [inhibitor, single point]. In the case of `CC(O)/C=C/c1cccc[n+]1C` (configuration not stated), the Potency is reported as active: 25.1 µM. With `O=C(O)CC1S/C(=N\N=C/c2ccccc2O)N(c2ccc(O)cc2)C1=O` (configuration not stated) the Potency was “inactive”. In the case of `O=C(NCCc1c[nH]c2ccccc12)C1Cc2ccccc2CN1C(=O)c1ccco1` (configuration not stated), the Potency is reported as inconclusive [inhibitor, single point]. With `Cc1ccc2cc3cc(C(=O)N4CCN(C(=O)c5ccco5)CC4)sc3nc2c1` the Potency was inconclusive [inhibitor, single point]. In the case of `CC(NC(=O)COc1ccc(/C=N/NC(=O)C(=O)Nc2ccccc2Br)cc1)c1ccccc1` (configuration not stated), the Potency is reported as inconclusive [inhibitor, single point].
